# Experimental data taken from article PMC4336329 (PLoS ONE, 2015).
# The whole screen tested about 310,000 compounds, of which about 14,000 (4.5%) showed an effect of 50% or more. Effects have a minus sign here. Some of the results follow.
# Target: human ether-à-go-go-related gene (hERG) potassium channel (human, UniProt Q12809)
# Assay: primary screen, population patch clamp on CHO cells stably expressing hERG
# 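Further: peak tail current of the secondary pulse compared with the same well before compound.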
# Chain of human ether-à-go-go-related gene (hERG) potassium channel (Q12809 whole entry, looked up): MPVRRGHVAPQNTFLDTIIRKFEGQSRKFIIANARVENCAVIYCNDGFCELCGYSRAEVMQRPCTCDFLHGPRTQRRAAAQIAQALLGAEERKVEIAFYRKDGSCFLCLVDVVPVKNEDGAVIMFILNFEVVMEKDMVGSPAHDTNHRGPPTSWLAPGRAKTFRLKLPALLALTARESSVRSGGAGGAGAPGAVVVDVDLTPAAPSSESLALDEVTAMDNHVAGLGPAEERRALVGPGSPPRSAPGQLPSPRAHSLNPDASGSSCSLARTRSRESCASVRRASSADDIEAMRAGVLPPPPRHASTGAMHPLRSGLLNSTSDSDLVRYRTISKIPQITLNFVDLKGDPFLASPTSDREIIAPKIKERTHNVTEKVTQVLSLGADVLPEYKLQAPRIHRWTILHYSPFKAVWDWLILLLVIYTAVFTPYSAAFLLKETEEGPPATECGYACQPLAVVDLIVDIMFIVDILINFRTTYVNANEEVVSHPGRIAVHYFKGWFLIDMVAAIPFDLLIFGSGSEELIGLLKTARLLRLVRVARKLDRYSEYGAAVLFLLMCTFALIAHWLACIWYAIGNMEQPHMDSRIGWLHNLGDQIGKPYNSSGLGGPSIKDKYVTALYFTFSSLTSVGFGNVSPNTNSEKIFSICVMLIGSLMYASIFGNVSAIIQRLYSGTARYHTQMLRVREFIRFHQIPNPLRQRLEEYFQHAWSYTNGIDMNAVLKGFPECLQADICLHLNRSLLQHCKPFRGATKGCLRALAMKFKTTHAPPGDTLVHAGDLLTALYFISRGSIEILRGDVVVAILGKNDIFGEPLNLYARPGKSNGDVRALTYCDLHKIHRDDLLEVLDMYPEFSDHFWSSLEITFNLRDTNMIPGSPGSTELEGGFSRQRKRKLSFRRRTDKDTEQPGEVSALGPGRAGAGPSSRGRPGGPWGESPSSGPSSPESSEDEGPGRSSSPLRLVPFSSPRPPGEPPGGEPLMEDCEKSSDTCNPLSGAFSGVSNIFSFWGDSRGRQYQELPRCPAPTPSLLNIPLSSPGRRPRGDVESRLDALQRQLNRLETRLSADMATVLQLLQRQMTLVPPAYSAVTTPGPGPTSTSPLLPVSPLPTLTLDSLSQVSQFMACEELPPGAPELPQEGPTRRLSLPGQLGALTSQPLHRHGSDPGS
row,SMILES,"hERG current change (%, negative = inhibition) at 10uM"
1,O=C(CSCc1cccc(Cl)c1)OCc1nc2ccsc2c(=O)[nH]1,5.41%
2,Nc1nonc1-n1nnc(C(=O)N/N=C/c2cccc(Cl)c2)c1CSc1ccccc1,18.8%
3,CNS(=O)(=O)c1cccc(C(=O)OCC(=O)Nc2ccccc2OC(F)F)c1,-14.5%
4,O=C(CSc1nc2[nH]ncc2c(=O)n1-c1ccccc1)N1CCCCCC1,-16.4%
5,O=C(NNC(=O)c1c(F)cccc1F)c1ccccc1OC(F)(F)F,7.23%
6,COc1ccc(N(CC(=O)N2CCOCC2)S(C)(=O)=O)cc1,19.1%
7,Cc1ccsc1C(C(=O)NC(C)(C)C)N(Cc1ccco1)C(=O)c1csnn1 (centres unmarked),6.38%
8,COc1cc(NC(=O)C/C(C)=N/NC(=O)Cc2ccc(Cl)cc2)c(OC)cc1Cl,-5.68%
9,NC(=O)[C@@H]1CCCNc2c(F)cc([N+](=O)[O-])cc2C(=O)N[C@@H](CO)C(=O)NCC(=O)N1,11.5%
10,COc1ccc(Cl)cc1NS(=O)(=O)c1ccc2c(c1)NC(=O)CCS2,-14.2%
11,N#CNC(=Nc1cccc(Cl)c1)Oc1ccccc1,26.6%
12,CCc1cccc2c1NC(=O)C2(O)CC(=O)c1cccs1 (centres unmarked),24.2%
13,O=C(NCC(=O)N(c1ccc2c(c1)OCO2)C(C(=O)NC1CCCC1)c1ccncc1)c1ccco1 (centres unmarked),-7.25%
14,N#C/C(=C\c1ccc(OCc2ccccc2)cc1)C(=O)Nc1nc2c(s1)CCN(Cc1ccccc1)C2,19.4%
15,O=C(CCC1(C(=O)O)CCC(=O)NC1)NCc1ccccc1 (centres unmarked),6.58%
16,Cc1ccc(NC(=O)CCNS(=O)(=O)c2cccs2)cc1F,16.8%
17,COc1ccc(N2CCN(C(=O)Cn3cnc4c(cnn4-c4ccccc4)c3=O)CC2)cc1,-14.5%
18,Cc1cc(OC(=O)c2ccccc2F)c([N+](=O)[O-])c(=O)[nH]1,11.5%
19,CC1(C)CC(=O)c2sc(NC(=O)CN3CCCCC3)nc2C1,2%
20,Cc1cc2c(ncn2C(C)C)c(N)c1C,-9.87%
21,O=C(/C=C/c1ccc(Br)cc1)NC(=S)NNC(=O)c1ccco1,7.88%
22,O=C1NC(=O)/C(=C\c2cn(CC(=O)N3CCOCC3)c3ccccc23)S1,11.7%

row,SMILES,"hERG current change (%, negative = inhibition) at 10uM"
1,O=C(N1CCOCC1)C12CC3CC(C1)CC(n1cnc(Cl)n1)(C3)C2,-10.2%
2,CCn1cnnc1SCC(=O)c1c(N)n(C2CC2)c(=O)[nH]c1=O,13.4%
3,CCSc1nc2ccccc2n1CCC(=O)O,5.02%
4,COc1cccc(-c2nc(CS(=O)(=O)CC(=O)NCCN3CCOCC3)c(C)o2)c1,5.36%
5,CCOC(=O)c1c(NC(=O)C2Cc3ccccc3C(=O)O2)sc2c1CCCC2 (centres unmarked),20.5%
6,O=S(=O)(c1c(Cl)sc(Cl)c1Br)N1CCCC1,-3.87%
7,CCOC(=O)c1cc(C#N)c(C)nc1N(CC)CC,-3.53%
8,COc1ccc(CCCC(=O)Nc2ccc(F)cc2)cc1,3.95%
9,S=c1[nH]nc(COc2ccccc2)n1/N=C/C=C/c1ccco1,3.42%
10,CCOC(=O)C1=C(Cn2cnc3ccccc32)NC(=O)NC1c1ccc(Cl)cc1 (centres unmarked),-16%
11,O=C(c1ccc(Cl)cc1)c1nnc(-c2ccncc2)o1,13%
12,CN(C)CCNC(=O)c1ccc(Sc2ccc(Br)cc2)c([N+](=O)[O-])c1,-43.9%
13,COc1ccc(CNC(=O)c2ccccc2NC(=O)C2=CSCCO2)c(OC)c1,-21.8%
14,Cc1ccc(-c2cc(C(=O)OC3CCOC3=O)c3ccccc3n2)c(C)c1 (centres unmarked),-17.7%
15,Cc1ccc(NC(=S)NNC(=O)c2cn(C)nc2C)cc1,6.59%
16,O=C(c1cccc(C(F)(F)F)c1)N1CCN(S(=O)(=O)c2ccc(Cl)s2)CC1,-30.8%
17,CC(=O)c1c(C)[nH]c(C(=O)OCC(=O)Nc2cc(Cl)ccc2[N+](=O)[O-])c1C,-14.3%
18,COc1ccc(Cc2nc3ccc(C(=O)NCC4COCCO4)cc3o2)cc1 (centres unmarked),1.38%
19,COc1ccc(Cl)cc1S(=O)(=O)Nc1noc2ccccc12,10.9%
20,Cc1ccccc1C1c2[nH]c3ccccc3c2C[C@H]2C(=O)N(C3CCN(Cc4ccccc4)CC3)CC(=O)N12 (some centres unmarked),-19.7%
21,Cc1ccc(N=Cc2c(O)cc(C)oc2=O)c(C)c1,13.6%
22,O=C(CSc1nc2ccccc2s1)Nc1ccc2c(c1)OCO2,-1.27%
